Data taken from PubChem BioAssay AID1961 (Sanford-Burnham Center for Chemical Genomics, 2009).
Out of some 290,000 compounds screened, about 140 (0.048%) were called active. This list was built around the results that the source calls inconclusive (neither active nor inactive); the mix of calls is not that of the screen.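 Rule for the calls: active = activation above 40% with more than 50 cells counted in the well; inconclusive = wells holding fewer than 50 cells, flagged as toxic or sparse; inactive = the rest.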

What follows are compounds tested against G-protein coupled receptor 55 (Homo sapiens) (UniProt Q9Y2T6) (assay: selective activators of receptor GPR55 – imaging, U2OS cells, beta-arrestin-GFP redistribution, primary screen (AID 1961;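 note: U2OS osteosarcoma cells stably expressing GPR55 and beta-arrestin-GFP; plate controls were DMSO negative control for no effect and LPI positive control for full effect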)). Conditions: at 10 µM, hits give high values.
UniProt Q9Y2T6, sequence (Q9Y2T6 whole entry, looked up): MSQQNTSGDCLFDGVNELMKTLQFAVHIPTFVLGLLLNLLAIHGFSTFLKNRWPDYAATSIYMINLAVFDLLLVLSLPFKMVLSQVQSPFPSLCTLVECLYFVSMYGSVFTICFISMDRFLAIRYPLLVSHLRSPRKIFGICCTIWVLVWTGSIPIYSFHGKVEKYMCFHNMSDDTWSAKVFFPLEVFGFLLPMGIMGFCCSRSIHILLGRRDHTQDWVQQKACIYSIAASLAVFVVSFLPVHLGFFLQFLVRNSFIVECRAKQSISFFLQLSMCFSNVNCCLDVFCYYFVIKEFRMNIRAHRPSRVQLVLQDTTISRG
For `Cc1ccc(C(=O)CC2C(=O)N(c3ccccc3)C(=S)N2c2ccccc2)cc1` (stereo unspecified), the activation was inconclusive: -0.2%.
With `O=S(=O)(Cc1ccccc1Cl)N1CCN(Cc2ccc3c(c2)OCO3)CC1` the activation was inconclusive: -0.2%.
In the case of `COc1ccc(NC(=O)Cn2c(CCC(=O)O)ccc2-c2ccccc2)cc1`, the activation is reported as inactive: 0.2%.
`COc1ccc(CN2C(=O)c3cccc4cccc(c34)C2=O)cc1` was tested, and the activation was inactive: -0.1%.
With `COc1cccc(-c2nnc3n2N=C(c2cc(OC)ccc2OC)CS3)c1` the activation was inactive: -0.1%.
With `CCC1Sc2ccc(S(=O)(=O)CCC(=O)Nc3cc(C)ccn3)cc2NC1=O` (stereo unspecified) the activation was inactive: -0.1%.
With `O=[N+]([O-])c1ccc(/C=C/C2=NN(c3ccccc3)C(c3ccco3)C2)o1` (stereo unspecified) the activation was inactive: 21.7%.
`CC(C)(C)C1=CC=C(C(C)(C)C)C(=O)C1=O` was tested, and the activation was inactive: 24.1%.
In the case of `O=C(NCc1ccc(Cl)cc1)C(=O)NCC(c1ccco1)N1CCOCC1` (stereo unspecified), the activation is reported as inconclusive: 0%.
`c1ccc(-c2cnn3c(-c4ccccc4)c(-c4ccccc4)nc3n2)cc1` was tested, and the activation was active: 42.5%.
In the case of `CC(C)c1ccccc1NC(=O)COC(=O)CNC(=O)c1ccc(Br)cc1`, the activation is reported as inconclusive: -0.2%.
With `O=C(C1=NN[C@@H]2C(=O)N(c3ccccc3C(F)(F)F)C(=O)[C@H]12)C(c1ccccc1)c1ccccc1` the activation was inconclusive: -0.1%.
In the case of `CCOC(=O)N1CCC(NC(=O)C2CCCN(S(=O)(=O)c3ccc4c(c3)oc(=O)n4C)C2)CC1` (stereo unspecified), the activation is reported as inconclusive: 0%.
`O=C(CN(CC1CCCO1)C(=O)CNS(=O)(=O)c1ccc(Cl)cc1)NC1CCCC1` (stereo unspecified) was tested, and the activation was inconclusive: 0%.
In the case of `Cc1ccc(CNC(=O)CCS(=O)(=O)c2ccc3c(c2)NC(=O)CO3)cc1`, the activation is reported as inactive: -0.2%.
For `COc1ccccc1CC(NC(C)=O)C(=O)NC1CCN(C(=O)c2ccc(C)cc2)CC1` (stereo unspecified), the activation was inconclusive: 0%.
`O=C(COC(=O)/C=C/c1ccccc1)Nc1cc(C(F)(F)F)ccc1N1CCOCC1` was tested, and the activation was inconclusive: -0.1%.
In the case of `COc1ccc(C(=O)Oc2cc(C(=S)N3CCOCC3)ccc2OC)cc1`, the activation is reported as inconclusive: 0%.
For `CCCCOc1ccc(/C=C/C(=O)OCC(=O)N2CC(=O)Nc3ccccc32)cc1OCC`, the activation was inconclusive: -0.1%.
With `CN(c1ccc(C(=O)N2CCN(c3ccccc3F)CC2)cc1)S(=O)(=O)c1ccccc1` the activation was inconclusive: 6.5%.
For `COc1ccccc1OCCC(=O)OCC(=O)NCc1ccccc1`, the activation was inconclusive: -0.1%.
`O=C(NCc1ccccc1Br)c1ccco1` was tested, and the activation was inconclusive: -0.2%.
For `CC1OC(OC2C(OC3C(O[C@H]4CC[C@]5(C)C6C=C[C@]78OC[C@@]9(CC[C@@H](C)[C@H](C)C97)[C@H](O)C[C@@]8(C)[C@]6(C)CC[C@H]5C4(C)C)OC(C)C(O)C3O)OC(CO)C(O)C2O)C(O)C(O)C1O` (stereo partly specified), the activation was inconclusive: 15.7%.
With `CC(C)CN=Cc1c(O)c([N+](=O)[O-])cc2oc3c(c12)CCCC3` the activation was inconclusive: -0.1%.
With `Cc1cc(C)cc(NC(=S)N(Cc2ccc(Br)cc2)Cc2ccc(C(=O)O)cc2)c1` the activation was inconclusive: -1.2%.
With `COC(=O)c1cc(OC)c(OC)cc1NC(=O)CC1CCCCC1` the activation was inactive: -0.2%.
With `O=c1c2ccccc2nc(SCc2nc3ccccc3s2)n1CCCO` the activation was inconclusive: -0.1%.
With `CCOC(=O)c1ccc(-n2c(O)c(/C=N/NC(=O)C3COc4ccccc4O3)c3ccccc3c2=O)cc1` (stereo unspecified) the activation was inconclusive: -0.1%.
With `Cc1oc2c(C)c(O)ccc2c(=O)c1N1C(=O)c2ccccc2C1=O` the activation was inactive: 0.2%.
In the case of `Cc1ccc(C)c(C(=O)COc2ccccc2[N+](=O)[O-])c1`, the activation is reported as inconclusive: -0.2%.
`FC(F)(F)c1cc(C(F)(F)F)c2ccc(N/N=C/c3cccc(Cl)c3)nc2n1` was tested, and the activation was active: 59.1%.
For `CCOC(=O)N1CCN(c2c(NCCCOC(C)C)c(=O)c2=O)CC1`, the activation was inactive: -0.1%.
In the case of `CCCSc1oc(-c2ccco2)nc1S(=O)(=O)c1ccccc1`, the activation is reported as inconclusive: 2.5%.
For `CC(=O)Nc1ccc(NCN2C(=O)[C@@H]3[C@H]4CC[C@H](C4)[C@@H]3C2=O)cc1`, the activation was inconclusive: -0.2%.
For `COC(=O)c1c(C)oc2ccc(OC(=O)c3cccs3)cc12`, the activation was inconclusive: 11.6%.
In the case of `CN(C)CCN1C(=O)C(=O)/C(=C(/O)c2ccccc2)C1c1ccccc1F` (stereo unspecified), the activation is reported as inconclusive: -0.2%.
With `O=C(Cn1cc(C(F)(F)F)ccc1=O)NCCc1ccc(Cl)cc1Cl` the activation was inconclusive: -0.2%.
With `CC1(C)CC(NC(=O)COc2ccc(Cl)cc2Cl)CC(C)(C)N1` the activation was inconclusive: 0%.
`CCOC(=O)Cc1csc(NC(=O)CSc2ccc(Br)cc2)n1` was tested, and the activation was inconclusive: -0.4%.
`O=C(CNc1ccccc1)N/N=C/c1ccc2c(c1)OCCO2` was tested, and the activation was inconclusive: -0.1%.
In the case of `O=C(NCCN1CCN(C(=O)c2ccc(F)cc2)CC1)c1ccc(F)cc1`, the activation is reported as inactive: 0.2%.
For `N#Cc1ccccc1NC(=O)CC1CCCCC1`, the activation was inactive: -0.1%.
With `O=C(N/N=C/c1cccc(OCc2ccccc2)c1)c1ccc(Br)cc1` the activation was inconclusive: -0.2%.
With `CCc1ccc(N(CC(=O)NC2CCCC2)C(=O)CCC(=O)Nc2ccccn2)cc1` the activation was inconclusive: -0.2%.
For `CN1/C(=C\C(=S)NC(=O)c2ccccc2Cl)C(C)(C)c2ccccc21`, the activation was inactive: -0.2%.
For `COc1ccccc1-n1nnnc1SCC(=O)Nc1cc(C)on1`, the activation was inconclusive: 6%.
`COc1ccc(NC(=O)NC2CCCCCCC2)c(OC)c1` was tested, and the activation was inactive: -0.1%.
`CCOc1cc(NC(=S)NCCCOC)c(OCC)cc1NC(=O)c1cccs1` was tested, and the activation was inconclusive: -0.2%.
For `O=C(CSc1ncn[nH]1)N1N=C2/C(=C/c3ccccc3)CCCC2C1c1ccccc1` (stereo unspecified), the activation was inconclusive: -0.2%.
`Cn1c(=O)c(=O)n(C)c2cc(S(=O)(=O)N3CCN(c4ccccc4F)CC3)ccc21` was tested, and the activation was inactive: -0.1%.
In the case of `COc1ccc(/C=C/C(=O)C(C(N)=O)=C2SCCS2)cc1`, the activation is reported as inconclusive: -0.1%.
In the case of `COc1cc(/C=C/C(=O)Oc2coc(CSc3ncccn3)cc2=O)cc(OC)c1OC`, the activation is reported as inactive: -0.2%.
For `O=C(NCCc1ccccn1)c1nc(Cn2ccc([N+](=O)[O-])n2)no1`, the activation was inconclusive: 0%.
`O=C(c1ccccc1F)N(NC(=O)C(O)(c1ccccc1)c1ccccc1)c1ccccc1` was tested, and the activation was inconclusive: -0.1%.
For `COc1ccc(Nc2ncc3c(n2)CC(c2ccccc2)CC3=O)cc1` (stereo unspecified), the activation was inactive: -0.1%.
`O=C(N/N=C/c1ccc(Br)cc1)c1ccc(F)cc1` was tested, and the activation was inconclusive: -0.2%.
With `CC(C)(C)NC(=O)CSc1nc(N)c(NC(=O)c2ccccc2F)c(=O)[nH]1` the activation was inactive: 0%.
For `CCN(/N=C/c1ccc(N(C)C)cc1)c1nc2ccccc2[nH]1`, the activation was inconclusive: -0.2%.
For `Cc1ccc(C(=O)Oc2ccc(Br)cc2C(=S)N2CCOCC2)cc1`, the activation was inconclusive: 0%.
With `CCOCCCNc1nc2c(C)cccn2c(=O)c1/C=C1\SC(=S)N(CC(C)C)C1=O` the activation was inactive: 1%.
For `CCOc1ccc(C=NCC(O)c2ccccc2)cc1` (stereo unspecified), the activation was inactive: -0.1%.
With `COCC(C)n1c(SCC(=O)NNC(=O)c2ccccc2)nc2ccccc2c1=O` (stereo unspecified) the activation was inconclusive: -0.1%.
With `COc1ccc(C(CCNC(C)c2ccccc2)c2ccc(F)cc2)cc1` (stereo unspecified) the activation was inconclusive: -0.1%.
With `COc1ccc(-n2c(=S)[nH]c3cc(C(=O)N(C)Cc4ccccc4)ccc3c2=O)cc1` the activation was inconclusive: 0%.
With `CCOc1ccccc1CNC(=O)CCc1cn(CC)c2ccccc12` the activation was inactive: 0.3%.
`C/C(=N\NC(=O)c1cc(-c2cccnc2)nc2ccccc12)c1ccccc1O` was tested, and the activation was inconclusive: -0.2%.
`O=C(O)c1ccc[nH]c1=S` was tested, and the activation was inactive: 0%.
In the case of `CC(Sc1nnc(Nc2ccccc2)s1)C(=O)NC1CCCc2ccccc21` (stereo unspecified), the activation is reported as inconclusive: -0.2%.
With `CCOC(=O)c1c(N)nn(C(=O)C(C)(C)C)c1-c1ccccc1` the activation was inconclusive: -0.2%.
With `O=C(COc1ccc(Cl)cc1)NC1=NN(c2ccccc2)C(=O)C1` the activation was inconclusive: -0.2%.
For `Cn1cc(CNCCCn2ncc3ccccc32)c(-c2ccccc2F)n1`, the activation was inconclusive: -0.2%.
`COc1ccc(N2CCN(C(=O)c3cc(=O)c4ccc(C)cc4o3)CC2)cc1` was tested, and the activation was inactive: -0.2%.
In the case of `COc1ccc(/C(O)=C2\C(=O)C(=O)N(CCN3CCOCC3)C2c2ccccc2OC)cc1` (stereo unspecified), the activation is reported as inconclusive: -0.5%.
`CC(NC(=O)c1cc2c(=O)n3ccccc3nc2n(CC2CCCO2)c1=N)c1ccccc1` (stereo unspecified) was tested, and the activation was inconclusive: 0%.
`Cn1c(N)c(C(=O)COC(=O)CSc2ccccc2)c(=O)n(C)c1=O` was tested, and the activation was inconclusive: -0.1%.
With `Cc1nnnn1/C(=C\c1ccccc1)C(=O)OCC(=O)N1CC2(C)CC1CC(C)(C)C2` (stereo unspecified) the activation was active: 74.3%.
`COC(=O)c1ccc(NC(=S)NCCc2ccccc2C)cc1` was tested, and the activation was inconclusive: -0.2%.
For `COc1ccc(OCC(=O)NNC(=O)c2ccc3c(=O)n4c(nc3c2)CCC4)cc1`, the activation was inconclusive: -0.1%.
With `CCCCN(CCCC)CC(O)COc1ccccc1Br` (stereo unspecified) the activation was inactive: -0.2%.
In the case of `CCOc1ccc(N2CC(C(=O)Nc3nnc(Cc4ccccc4)s3)CC2=O)cc1` (stereo unspecified), the activation is reported as inconclusive: 0%.
For `CCOc1ncccc1C(=O)Nc1ccc(-c2ccc3nnc(C)n3n2)cc1`, the activation was inactive: -0.2%.
For `O=C(O)c1cccc(CSc2nnc(-c3ccc(Cl)cc3)o2)c1`, the activation was inactive: 0.2%.
`COc1cccc(-c2cc(C(=O)NCCCn3ccnc3)c3ccccc3n2)c1` was tested, and the activation was inconclusive: -0.4%.
With `CCCCC1CCC(C(=O)N(CCCC)c2c(N)n(CCCC)c(=O)[nH]c2=O)CC1` (stereo unspecified) the activation was inconclusive: -0.1%.
For `CCC(C(=O)OCC(=O)Nc1c(Cl)cc(Cl)cc1Cl)c1ccccc1` (stereo unspecified), the activation was inconclusive: -0.1%.
With `O=C(Cc1ccccc1)Nc1ccc(NC(=O)c2ccco2)cc1` the activation was inactive: 0.2%.
